From PubChem BioAssay AID588855 (National Center for Advancing Translational Sciences (NCATS), 2011)
Among all 410,000 compounds or so, about 5,000 (1.2%) were called active. The inconclusive results got no clear call from the source; some entries with a clear call stand among them for comparison. Calls follow the shape of the dose curve; as a rule, active = well fitted inhibition curve with a large enough effect; inconclusive = small, poorly fitted or top-dose-only effect; inactive = no such curve, though single readings can be large or run the other way. Potencies of inconclusive entries are doubtful fits and often do not repeat.

Test: qHTS for Inhibitors of TGF-b; also: nearly all actives have a fitted effect of over 65% in size
Settings: HepG2 CAGA-GFP TGF-b/SMAD3 reporter, GFP fluorescence, 18 h, TGF-beta stimulated, 500 pg/mL final; series mostly up to 46.1 µM
In short: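 Smad-responsive CAGA-GFP expression was quantified in HEPG2 cells exposed to compounds and 500 pg/mL final TGF-beta for 18 h at 37 degrees C; unstimulated wells defined full inhibition.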
Potency is read from the fitted curve at half-maximal effect; tags tell the direction and shape of the fitted curve.

| SMILES | Potency |
| --- | --- |
| CCOC(=O)c1ccc(N2C(=O)c3n[nH]c(C)c3C2c2ccc(OCC)cc2)cc1 (centres undefined) | active: 11.2 µM |
| CC1=C(C(=O)Nc2ccccc2)C(c2ccc(N(C)C)cc2)NC(=O)N1 (centres undefined) | inconclusive: 12.6 µM [inhibitor, partial curve] |
| O=C(Nc1nnc(S(=O)(=O)Nc2ccccc2)s1)C1CCCCC1 | inconclusive: 6.31 µM [inhibitor, single point] |
| CCCSc1nnc2[nH]c(=O)cc(C)n12 | inactive |
| COc1ccc(OC)c(CCNC(=O)CCC(=O)N2CCOc3ccc(C)cc32)c1 | inactive |
| CN(C)CCCN(C(=O)c1ccc(S(=O)(=O)N(C)C2CCCCC2)cc1)c1nc2ccc(F)cc2s1 | inconclusive: 22.4 µM [inhibitor, single point] |
| CC(C)(C)n1ncc2c(=O)n(Cc3ccc(C(=O)c4ccccc4)cc3)cnc21 | inconclusive: 17.8 µM [inhibitor, partial curve, poor fit] |
| O=C(CCN1CCOCC1)Nc1cc(C(=O)Nc2ccc(Cl)cc2)ccc1N1CC2CC(C1)c1cccc(=O)n1C2 (centres undefined) | inactive |
| CCOC(=O)c1sc2nc(C)nc(SCC(=O)N(C)C3CCS(=O)(=O)C3)c2c1C (centres undefined) | inactive |
| C(=N\Nc1ncnc2ccccc12)/c1ccccc1 | inconclusive: 35.5 µM [inhibitor, partial curve, poor fit] |
| Cc1noc2ncnc(Sc3ccc(Cl)cc3)c12 | inconclusive: 35.5 µM [inhibitor, single point] |
| Cc1ccc(NC(=O)CCn2ccc([N+](=O)[O-])n2)nc1 | inactive |
| CCOC(=O)c1ccc(N=c2sc(C(=O)OC)cc(=O)n2Cc2ccco2)cc1 | inconclusive: 35.5 µM [inhibitor, single point] |
| COc1ccccc1N1CCN(C(=O)c2cc(S(=O)(=O)N3CCC(C)CC3)cn2C)CC1 | inconclusive: 4.47 µM [inhibitor, partial curve, poor fit] |
| CCOC(=O)c1c(C)[nH]c(C(=O)COC(=O)c2oc3ccc(OC)cc3c2C)c1C | inactive |
| COc1nc(C)nc2c1sc1nc3c(cc12)COC(C)(C)C3 | inactive |
| COc1ccc(-n2c(=O)c3ccccc3n(Cc3cccc(C)c3)c2=O)cc1 | inconclusive: 6.31 µM [inhibitor, single point] |
| COc1cccc(Cn2c(CNS(=O)(=O)c3ccc(C(C)(C)C)cc3)nc3cccnc32)c1 | inconclusive: 35.5 µM [inhibitor, single point] |
| CCCN(c1ccc(C(C)C)cc1)S(=O)(=O)c1ccc2c(c1)oc(=O)n2CC(=O)OCC | inconclusive: 10 µM [inhibitor, single point] |
